Results on 19 molecules are retold here after the supplement of paper PMC10369915.

Targets include SHP2 C-SH2 domain E139D; SHP2 N-SH2 domain L43F; SHP2 N-SH2 domain T42A; SHP2 N-SH2 domain T52S.
Common to all, as to experiment: enrichment score (SH2-bound / input frequency) (ratio); bacterial display of known human phosphotyrosine sites (pTyr-Var adds point mutants) read by sequencing; higher = stronger binding; tyrosines were phosphorylated by kinases first
Common to all, as to conditions: peptide library: pTyr-Var

Assay [1] concerns the target SHP2 C-SH2 domain wild-type.
The target in assay [2] is SHP2 N-SH2 domain wild-type.

The other results are listed elsewhere or left out. Rule as the data show it: active = 3.2 or more and inactive = the rest. Most of these values are background signal.
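Also: displayed peptides selected on beads carrying the immobilized SH2 domain, with library peptides lacking any tyrosine serving as negative controls.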

For the molecule TTEHIYGDNFF [UBA7_Y524], the enrichment score with SHP2 C-SH2 domain E139D was inactive: 0.964; in assay [1], inactive: 0.849; with SHP2 N-SH2 domain L43F, inactive: 0.816; with SHP2 N-SH2 domain T42A, inactive: 0.69; with SHP2 N-SH2 domain T52S, inactive: 0.609; in assay [2], inactive: 0.913.

For GITVAYTIPKK [UBA5_Y372], the enrichment score in the assay with SHP2 C-SH2 domain E139D was inactive: 1.19; in assay [1], inactive: 1.06; in the assay with SHP2 N-SH2 domain L43F it was inactive: 0.773; with SHP2 N-SH2 domain T42A, inactive: 1.62; with SHP2 N-SH2 domain T52S it was inactive: 0.981; in assay [2] it was inactive: 0.96.

As to VVQGIYGFHHH [UFSP2_Y285_Y290H_YF], the enrichment score was inactive: 2.18 in the assay with SHP2 C-SH2 domain E139D; inactive: 2.07 in assay [1]; inactive: 2.38 in the assay with SHP2 N-SH2 domain L43F; inactive: 1.98 in the assay with SHP2 N-SH2 domain T42A; inactive: 2.29 in the assay with SHP2 N-SH2 domain T52S; inactive: 2.04 in assay [2].

With DTERIYDDDFF [UBA1_Y560], the enrichment score with SHP2 C-SH2 domain E139D is inactive: 0.607; in assay [1], inactive: 0.581; with SHP2 N-SH2 domain L43F it was inactive: 0.761; with SHP2 N-SH2 domain T42A, inactive: 0.573; in the assay with SHP2 N-SH2 domain T52S, inactive: 0.543; in assay [2], inactive: 0.578.

KWTVDYLSQVG [TYW5_Y48]: the enrichment score in the assay with SHP2 C-SH2 domain E139D was inactive: 1.12; in assay [1], inactive: 1.06; with SHP2 N-SH2 domain L43F, inactive: 1.07; with SHP2 N-SH2 domain T42A, inactive: 1.17; with SHP2 N-SH2 domain T52S, inactive: 1.03; in assay [2], inactive: 1.05.

With GITVTYTIPKK [UBA5_Y372_A371T], the enrichment score in the assay with SHP2 C-SH2 domain E139D was inactive: 1.41; in assay [1], inactive: 2.09; with SHP2 N-SH2 domain L43F, inactive: 2.09; with SHP2 N-SH2 domain T42A, active: 4.1; in the assay with SHP2 N-SH2 domain T52S, inactive: 1.92; in assay [2] it was inactive: 1.1.

As to VDSNPYSHLMA [UBA5_Y53_R55H], the enrichment score is inactive: 0.645 with SHP2 C-SH2 domain E139D; inactive: 0.743 in assay [1]; inactive: 0.598 with SHP2 N-SH2 domain L43F; inactive: 0.484 with SHP2 N-SH2 domain T42A; inactive: 0.642 with SHP2 N-SH2 domain T52S; inactive: 0.578 in assay [2].

Regarding KWTVDYLGQVG [TYW5_Y48_S50G], the enrichment score is inactive: 0.94 with SHP2 C-SH2 domain E139D; inactive: 1.09 in assay [1]; inactive: 0.93 with SHP2 N-SH2 domain L43F; inactive: 1.76 in the assay with SHP2 N-SH2 domain T42A; inactive: 0.974 with SHP2 N-SH2 domain T52S; inactive: 1.21 in assay [2].

As for VDSNPYSRLVA [UBA5_Y53_M57V], the enrichment score with SHP2 C-SH2 domain E139D was inactive: 0.635; in assay [1], inactive: 1.39; with SHP2 N-SH2 domain L43F, inactive: 0.574; with SHP2 N-SH2 domain T42A, inactive: 0.513; with SHP2 N-SH2 domain T52S, inactive: 0.607; in assay [2], inactive: 0.702.

On to NTQRPHFKGGG [TYROBP_Y111_Y111H_YF], for which the enrichment score with SHP2 C-SH2 domain E139D is inactive: 1.19; in assay [1], inactive: 1.45; in the assay with SHP2 N-SH2 domain L43F it was inactive: 1.51; with SHP2 N-SH2 domain T42A, inactive: 0.967; with SHP2 N-SH2 domain T52S, inactive: 1.22; in assay [2], inactive: 1.39.

On to DLNATYCTIQG [U2SURP_Y634_R635C], for which the enrichment score in the assay with SHP2 C-SH2 domain E139D was inactive: 0.791; in assay [1], inactive: 0.71; with SHP2 N-SH2 domain L43F, inactive: 0.698; with SHP2 N-SH2 domain T42A, inactive: 0.621; with SHP2 N-SH2 domain T52S, inactive: 0.622; in assay [2], inactive: 0.732.

As for EFGFRYELVQY [UGGT2_Y1289_Y1285F], the enrichment score with SHP2 C-SH2 domain E139D was inactive: 0.528; in assay [1] it was inactive: 0.517; with SHP2 N-SH2 domain L43F, inactive: 0.426; in the assay with SHP2 N-SH2 domain T42A, inactive: 0.76; in the assay with SHP2 N-SH2 domain T52S it was inactive: 0.624; in assay [2], inactive: 0.453.

EFGFRYELVQF [UGGT2_Y1289_Y1285F_YF]: the enrichment score is inactive: 0.868 with SHP2 C-SH2 domain E139D; inactive: 0.773 in assay [1]; inactive: 0.805 with SHP2 N-SH2 domain L43F; inactive: 1.08 with SHP2 N-SH2 domain T42A; inactive: 0.753 with SHP2 N-SH2 domain T52S; inactive: 0.85 in assay [2].

Turning to ARGTRYRFVSQ [UCN3_Y95_YF], the enrichment score in the assay with SHP2 C-SH2 domain E139D was inactive: 0.312; in assay [1] it was inactive: 0.255; in the assay with SHP2 N-SH2 domain L43F it was inactive: 0.24; in the assay with SHP2 N-SH2 domain T42A, inactive: 0.238; with SHP2 N-SH2 domain T52S, inactive: 0.268; in assay [2], inactive: 0.267.

Take AGGTRYRYVSQ [UCN3_Y95_R91G]: the enrichment score with SHP2 C-SH2 domain E139D is inactive: 0.335; in assay [1], inactive: 0.314; with SHP2 N-SH2 domain L43F, inactive: 0.335; with SHP2 N-SH2 domain T42A it was inactive: 0.307; with SHP2 N-SH2 domain T52S it was inactive: 0.418; in assay [2], inactive: 0.466.

For the molecule PQQLWYTHKKK [UBTF_Y207_E210K], the enrichment score with SHP2 C-SH2 domain E139D is inactive: 0.869; in assay [1], inactive: 0.662; with SHP2 N-SH2 domain L43F, inactive: 0.678; in the assay with SHP2 N-SH2 domain T42A it was inactive: 0.531; in the assay with SHP2 N-SH2 domain T52S, inactive: 0.568; in assay [2] it was inactive: 0.498.

As to AGGTRYRFVSQ [UCN3_Y95_R91G_YF], the enrichment score was inactive: 0.556 with SHP2 C-SH2 domain E139D; inactive: 0.564 in assay [1]; inactive: 0.374 with SHP2 N-SH2 domain L43F; inactive: 0.634 with SHP2 N-SH2 domain T42A; inactive: 0.408 in the assay with SHP2 N-SH2 domain T52S; inactive: 0.7 in assay [2].

ARGTRYRYVSQ [UCN3_Y95]: the enrichment score in the assay with SHP2 C-SH2 domain E139D is inactive: 0.183; in assay [1], inactive: 0.224; with SHP2 N-SH2 domain L43F, inactive: 0.317; with SHP2 N-SH2 domain T42A, inactive: 0.204; with SHP2 N-SH2 domain T52S, inactive: 0.166; in assay [2], inactive: 0.174.

Regarding ETELPYQELQG [TYROBP_Y91_S89L], the enrichment score with SHP2 C-SH2 domain E139D was inactive: 0.516; in assay [1], inactive: 0.557; with SHP2 N-SH2 domain L43F, inactive: 0.588; with SHP2 N-SH2 domain T42A, inactive: 0.601; with SHP2 N-SH2 domain T52S it was inactive: 0.629; in assay [2] it was inactive: 0.768.
